Data reported in PubChem BioAssay AID2147 (National Center for Advancing Translational Sciences (NCATS), 2009).
In all, about 230,000 compounds went through this assay and about 3,600 (1.6%) were called active. Inconclusive means that the source gave no clear call. Such entries were picked first, then a sample of the others. The call rests on the fitted dose curve; in most records, active means well fitted inhibition curve with a large enough effect (not every such curve was filed as active); inconclusive means small, poorly fitted or top-dose-only effect, or another doubt; inactive means no such curve, though single readings can be large or run the other way. Potencies beside an inconclusive call are fits to weak or partial responses and may not hold up.

Target: Lysine-specific demethylase 4E (Homo sapiens) (UniProt B2RXH2)
Experiment: qHTS Assay for Inhibitors of Human Jumonji Domain Containing 2E (JMJD2E)
Conditions: JMJD2E catalytic domain, FDH-coupled NADH fluorescence (FDH is formaldehyde dehydrogenase); series mostly up to 57.1 µM; activity change, negative = inhibition: at the top concentration
Further: nearly all actives have a fitted effect of over 50% in size.
Potency means the concentration at half of the fitted maximal effect; tags describe the fitted curve by direction and shape.
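Wherever activity change, negative = inhibition is given: 0% = wells with enzyme and -100% = buffer wells without enzyme.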

Chain of UniProt B2RXH2 (B2RXH2 whole entry, looked up, the tested form may be a part): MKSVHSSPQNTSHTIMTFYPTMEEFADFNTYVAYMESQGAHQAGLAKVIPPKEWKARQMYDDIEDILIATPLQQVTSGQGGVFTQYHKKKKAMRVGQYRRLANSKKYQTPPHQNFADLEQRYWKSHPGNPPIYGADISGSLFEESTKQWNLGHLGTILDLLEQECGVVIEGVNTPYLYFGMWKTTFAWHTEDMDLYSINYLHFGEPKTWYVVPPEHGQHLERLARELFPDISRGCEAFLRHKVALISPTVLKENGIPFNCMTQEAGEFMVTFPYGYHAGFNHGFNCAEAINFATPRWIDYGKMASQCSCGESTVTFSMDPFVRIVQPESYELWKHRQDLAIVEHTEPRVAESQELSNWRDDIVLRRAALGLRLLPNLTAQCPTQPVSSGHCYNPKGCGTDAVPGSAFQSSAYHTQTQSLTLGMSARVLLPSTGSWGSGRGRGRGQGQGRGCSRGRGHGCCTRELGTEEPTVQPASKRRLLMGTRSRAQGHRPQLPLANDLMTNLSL

| SMILES | Potency | activity change, negative = inhibition |
| --- | --- | --- |
| COc1cccc(-c2ccc(-c3noc(-c4ccccc4F)n3)c(OC)n2)c1 | inconclusive: 28.2 µM [inhibitor, partial curve] |  |
| Cc1ccc(-c2nc3c4ccccc4ccn3c2CN2CCCCC2)cc1 | inconclusive: 3.55 µM [inhibitor, single point] |  |
| O=C(c1ccc(Cl)cc1)n1c(NCc2ccccc2)n[nH]c1=S | inconclusive: 31.6 µM [inhibitor, partial curve] |  |
| O=C(CSc1ccc2c(c1)OCCO2)NCc1ccccc1 |  | inactive: -3.17% |
| Cc1ccc(CN2C(=O)N/C(=C/c3ccc(-c4ccc(C(=O)O)cc4)o3)C2=O)cc1 | inconclusive: 25.1 µM [inhibitor, partial curve] |  |
| CCCCC(=O)Nc1nc(C)c(-c2csc(Nc3cc(Cl)ccc3OC)n2)s1 | inconclusive: 28.2 µM [inhibitor, single point] |  |
| N/C(=N\OC(=O)CCn1cccc(C(F)(F)F)c1=O)c1ccc(Cl)cc1 | inconclusive: 39.8 µM [inhibitor, single point] |  |
| COc1cc(C(C)=O)ccc1Oc1ncnc2c1cnn2-c1ccc(F)cc1 |  | inactive: 8.05% |
| COc1ccc(NC(=O)n2nc(OC(=O)c3cccs3)cc2N)cc1 |  | inactive: 7.72% |
| NC(=O)C1=C[C@H](c2ccc(C(F)(F)F)cc2)C[C@H](OCCCCO)O1 | inconclusive: 3.98 µM [inhibitor, single point] |  |
| COc1ccc2nc(NC(=O)c3ccc4ncsc4c3)sc2c1 | inconclusive: 20 µM [inhibitor, partial curve] |  |
| C[C@@H]1CNCCN1S(=O)(=O)c1cccc2cnccc12 |  | inactive: -6.58% |
| COc1ccccc1/C=C/C(=O)NCC(=O)N/N=C/c1ccccc1 | inconclusive: 31.6 µM [inhibitor, partial curve] |  |
| COC(CN1CCc2c(C)nc3c(C#N)cnn3c21)OC | inconclusive: 31.6 µM [inhibitor, single point] |  |
| NS(=O)(=O)c1ccc(Cc2ncc(C(F)(F)F)cc2Cl)s1 |  | inactive: -2.58% |
| COC(=O)/C=C1\S/C(=N/NC(=O)c2ccccc2)NC1=O |  | inactive: 2.24% |
| Clc1cccc(CN2CCCCCCC2)c1Cl | inconclusive: 28.2 µM [inhibitor, single point] |  |
| CSc1ccc(CN2CCN(C(=O)c3ccc([N+](=O)[O-])cc3)CC2)cc1 | inconclusive: 28.2 µM [inhibitor, single point] |  |
| COc1ccc(/C=N/n2c(SC)nnc2-c2ccccc2)c(OC)c1OC | inconclusive: 22.4 µM [inhibitor, single point] |  |
| COc1ccc(NS(=O)(=O)c2cc(NC(=O)c3cccs3)ccc2N2CCCC2)cc1 | inconclusive: 35.5 µM [inhibitor, single point] |  |
| CC1Oc2ccccc2OC1(O)c1ccc2ccccc2n1 (stereo unspecified) |  | inactive: -0.455% |
| CN(C)c1ccnc(NCc2ccccc2)c1C#N | inconclusive: 39.8 µM [inhibitor, single point] |  |
| S=c1[nH]nc(-c2ccco2)n1/N=C/C(Cl)=C/c1ccccc1 |  | inactive: -10.3% |
| O=C(Nc1ccccc1-c1nnc(SCc2ccc(Cl)cc2)o1)c1ccccc1 | inconclusive: 22.4 µM [inhibitor, partial curve] |  |

| SMILES | Potency | activity change, negative = inhibition |
| --- | --- | --- |
| O=C(NCCCN1CCOCC1)c1ccccc1NS(=O)(=O)c1ccc(F)cc1 | inconclusive: 31.6 µM [inhibitor, partial curve] |  |
| CCOC(=O)c1c(-c2ccc(C)cc2)csc1NC(=O)c1ccc(N2C(=O)CCC2=O)cc1 | inconclusive: 6.31 µM [inhibitor, single point] |  |
| COc1ccc(C(=O)CN2CCN(S(=O)(=O)c3cccc([N+](=O)[O-])c3)CC2)cc1OC | inconclusive: 17.8 µM [inhibitor, single point] |  |
| CCOC(=O)c1cc2c(C)[nH]c(C)c2cc(C(=O)OCC)c1=O | inconclusive: 11.2 µM [inhibitor, single point] |  |
| COc1ccc(-c2c3c(=O)n(C)c(=O)n(C)c3cn2-c2cccc(OC)c2)cc1 | inconclusive: 22.4 µM [inhibitor, partial curve] |  |
| COc1ccc(C(=O)Nc2nc3ccccc3[nH]2)cc1OC |  | inactive: 1.09% |
| CCOC(=O)CNC(=O)C1CCCN(c2ncccn2)C1 (stereo unspecified) | inconclusive: 28.2 µM [inhibitor, single point] |  |
| Cc1ccccc1N(CC(=O)NC1CCCC1)C(=O)C1(C)CC(=O)N=C2C=CC=CN21 (stereo unspecified) | inconclusive: 28.2 µM [inhibitor, partial curve] |  |
| CCOc1ccccc1NC(=O)CSc1nc(N)c(C#N)cc1C#N | inconclusive: 39.8 µM [inhibitor, single point] |  |
| COc1ccc(C(=O)Cn2nnc(-c3ccccc3NC(=O)c3ccco3)n2)cc1 | inconclusive: 39.8 µM [inhibitor, single point] |  |
| COc1ccc(/C(C)=N/Nc2cccc(C(=O)O)c2)cc1OC | inconclusive: 39.8 µM [inhibitor, single point] |  |
| CCOc1ccccc1NC(=S)N(Cc1cc2ccc(C)cc2[nH]c1=O)CC1CCCN1CC (stereo unspecified) | inconclusive: 35.5 µM [inhibitor, single point] |  |
| CCCC(=O)Nc1nc(C)c(-c2csc(Nc3ccccc3C)n2)s1 |  | inactive: -8.57% |
| C=CCCC(=O)Nc1nc(C)c(-c2csc(Nc3ccccc3OC)n2)s1 | inconclusive: 28.2 µM [inhibitor, single point] |  |
| COc1ccc(CCn2c(=S)[nH]c3ccc(N4CCOCC4)cc3c2=O)cc1OC | inconclusive: 31.6 µM [inhibitor, partial curve] |  |
| CCC(=O)Nc1cccc(NC(=O)c2ccccc2Br)c1 |  | inactive: 7.16% |
| CCOC(=O)c1sc2nc(CSc3ccccc3)nc(N3CCC(C(N)=O)CC3)c2c1C | inconclusive: 25.1 µM [inhibitor, partial curve] |  |
| CC(C)Cn1cc(C(=O)NCCCN2CCCC2=O)c2c3ccccc3n(C)c2c1=O | inconclusive: 31.6 µM [inhibitor, partial curve] |  |
| CCn1cc(Br)c(C(=O)Nc2ccc(Cl)cc2Cl)n1 |  | inactive: -12.1% |
| Cc1nc2nc(-c3ccco3)[nH]n2c(=O)c1C | inconclusive: 31.6 µM [inhibitor, partial curve] |  |
| CCOc1ccc2[nH]c(=O)c(CN(CCO)Cc3nnnn3CCc3ccccc3)cc2c1 | inconclusive: 28.2 µM [inhibitor, partial curve] |  |
| CCc1cccc2c1NC1(CCCC1)CC2C (stereo unspecified) | inconclusive: 35.5 µM [inhibitor, single point] |  |
| CC(=O)C1=C(c2ccccc2)OC(N)=C(C#N)C1c1ccccc1C (stereo unspecified) |  | inactive: 2.14% |
| Fc1cccc(Cl)c1-c1nnc2ccc3ccccc3n12 |  | inactive: -5.86% |

| SMILES | Potency | activity change, negative = inhibition |
| --- | --- | --- |
| CN(C)S(=O)(=O)c1cccc(NC(=O)c2cc(-c3cccs3)nn2-c2cccc(Cl)c2)c1 | inconclusive: 35.5 µM [inhibitor, single point] |  |
| Cc1c(Cl)c([N+](=O)[O-])nn1CCCC(=O)Nc1ccc(Cl)cc1Cl |  | inactive: -4.7% |
| O=C(NNc1c(Cl)cc(Cl)cc1Cl)c1cccc([N+](=O)[O-])c1 |  | inactive: 3.29% |
| N#Cc1ccccc1/C=N/Nc1nc(-c2ccccc2)c2cc(Br)ccc2n1 | inconclusive: 39.8 µM [inhibitor, single point] |  |
| CN1Cc2c(N3CCOCC3)nc(SCc3ccccc3)c(C#N)c2CC1(C)C |  | inactive: 1.85% |
| COc1ccc(C(=O)Nc2ccccc2C(=O)N/N=C/c2ccccc2OC)cc1 | inconclusive: 28.2 µM [inhibitor, single point] |  |
| COc1ccc(/C=N/NC(=O)c2ccc(CSc3nc(C)cc(C)n3)cc2)cc1O |  | inactive: -0.175% |
| COC(=O)c1ccccc1NC(=O)Cc1nc(-c2ccccc2)sc1-c1ccc(C)cc1 |  | inactive: 1.27% |
| O=C1c2ccccc2C(=O)N1OCc1ccc(Cl)cc1 |  | inactive: 8.57% |
| Cc1cc(NC2CCCCC2)n2c(n1)nc1ccccc12 | inconclusive: 31.6 µM [inhibitor, partial curve] |  |
| CCc1ccc(C2NC(=S)NC3=C2C(=O)CCC3)cc1 (stereo unspecified) |  | inactive: 0.645% |
| COc1ccc(-n2ncc3c(NCc4ccc5c(c4)OCO5)ncnc32)cc1 | inconclusive: 11.2 µM [inhibitor, partial curve] |  |
| CCOC(=O)N1CCN(C(=O)c2ccc(SC)cc2OC)CC1 |  | inactive: 1.57% |
| Cc1cc(=O)oc2cc(OCCCC[n+]3ccccc3)ccc12 | inconclusive: 20 µM [inhibitor, partial curve] |  |
| CN(C)S(=O)(=O)c1ccc(Cl)c(C(=O)Nc2nc3ccccc3[nH]2)c1 |  | inactive: -4.53% |
| CC1=NN(c2ccccc2)C(=O)/C1=C\c1sccc1C | inconclusive: 10 µM [inhibitor, partial curve] |  |
| COc1ccc(CN(C(=O)/C=C/c2ccco2)C2CCS(=O)(=O)C2)cc1 (stereo unspecified) |  | inactive: 0.611% |
| CN1Cc2c(N3CCOCC3)nc3sc(C#N)c(N)c3c2CC1(C)C | inconclusive: 28.2 µM [inhibitor, partial curve] |  |
| COc1cc(/C=C/C(=O)OCC(=O)NC(=O)NC(C)(C)C)ccc1O | inconclusive: 22.4 µM [inhibitor, single point] |  |
| CCCCOCC(O)Cn1c(C)nc2ccccc21 (stereo unspecified) | inconclusive: 28.2 µM [inhibitor, single point] |  |
| Cc1ccc(C2CC(c3cccc(NS(C)(=O)=O)c3)=NN2S(C)(=O)=O)cc1 (stereo unspecified) | inconclusive: 31.6 µM [inhibitor, single point] |  |
| CCC(CO)Nc1ncnc2c1cnn2-c1ccc(Cl)cc1 (stereo unspecified) | inconclusive: 31.6 µM [inhibitor, partial curve] |  |
| Cn1c(CN2CCN(c3cccc(Cl)c3)CC2)nc2ccccc21 | inconclusive: 39.8 µM [inhibitor, single point] |  |
